Several values for one entry are separate records, joined by “and”; a condition that tells them apart may be missing. Equal entries are not always repeated. Whole data set: some 2,900 compounds, median “NF-kB SEAP reporter activity, fold change vs agonist alone” near 0.99, cut for the highest 2% near 2.6. The list shows a part of the results.

Test [1] concerns RAW-Dual. Description: NF-kB SEAP reporter activity, fold change vs agonist alone; cytotoxicity flag (confluency mask): cytotoxic (confluency <70% of control); higher = enhanced NF-kB activity. The method, boiled down:
(§1)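 RAW-Dual macrophages (50,000 cells/well in DMEM, 384-well plates) received 50 nL of library stock by pin tool, then a PRR agonist 1 h later, and were kept at 37 °C, 5% CO2. After 20 hours, supernatant was read for IRF by QuantiLuc luminescence and for NF-κB by QuantiBlue absorbance at 620 nm. Reporter activity is fold change over agonist-alone wells. Cytotoxic wells had IncuCyte confluency below 70% of agonist controls in both mask sets.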

The test system of test [2] is RAW-Dual. Description: NF-kB SEAP reporter activity, fold change vs agonist alone; higher = enhanced NF-kB activity. In a few lines: as §1
Test [3] relates to RAW-Dual. Description: NF-kB SEAP reporter activity, fold change vs agonist alone; cytotoxicity flag (confluency mask): not cytotoxic; higher = enhanced NF-kB activity. In a few lines:
as §1

The mark [4] stands for this setting: agonist: ODN 1826 (TLR9) 0.5 ug/mL.
The mark [5] stands for this setting: agonist: Pam2CSK4 (TLR2/6) 0.1 ug/mL.
Where [6] appears, read: agonist: Pam3CSK4 (TLR2/1) 0.1 ug/mL.
The mark [7] stands for this setting: library stock concentration (final ~1000-fold dilution): 10 mM, cytotoxicity flag (confluency mask): not cytotoxic, agonist: Imiquimod (TLR7) […].
Setting [8] is: library stock concentration (final ~1000-fold dilution): 10 mM, cytotoxicity flag (confluency mask): not cytotoxic, agonist: MPLA (TLR4) […].

For `O=C(NCCCNc1nc(Nc2cccc(NC(=O)N3CCCC3)c2)ncc1I)c1cccs1` (library stock concentration (final ~1000-fold dilution): 10 mM), the “NF-kB SEAP reporter activity” value with RAW-Dual [1] (agonist: LPS (TLR4) 0.1 ug/mL) is 0.329 and 0.35; with RAW-Dual [1] (setting [4]), 0.729 and 1.48; in the test with RAW-Dual [1] (setting [5]) it was 0.0917 and 0.128; in the test with RAW-Dual [1] (setting [6]) it was 0.252 and 0.376.

`Cc1ccccc1C(=O)Nc1ccc(C(=O)N2CCCC(N(C)C)c3ccccc32)cc1` (stereo not given): the “NF-kB SEAP reporter activity” value in the test on RAW-Dual [2] (library stock concentration (final ~1000-fold dilution): 2 mM, cytotoxicity flag (confluency mask): not cytotoxic, agonist: Imiquimod (TLR7) […]) worked out at 0.98; in the test with RAW-Dual [2] (library stock concentration (final ~1000-fold dilution): 2 mM, cytotoxicity flag (confluency mask): not cytotoxic, agonist: MPLA (TLR4) […]), 1.01.

For the compound `Cc1ccccc1C(=O)Nc1ccc(C(=O)N2CCCC(N(C)C)c3ccccc32)cc1` (stereo not given) (library stock concentration (final ~1000-fold dilution): 2 mM), the “NF-kB SEAP reporter activity” value in the test on RAW-Dual [3] (agonist: LPS (TLR4) 0.1 ug/mL) was 1.12; in the test with RAW-Dual [3] (setting [4]), 0.973; in the test with RAW-Dual [3] (setting [5]), 0.996; in the test on RAW-Dual [3] (setting [6]), 0.972.

With `Cc1ccc(C)c(N/C=C/C(=O)c2ccccc2)c1`, the entries for the “NF-kB SEAP reporter activity” value in the test with RAW-Dual [2] (setting [7]) and in the test on RAW-Dual [2] (setting [8]) were 1.01 and 1.38, respectively.

For `Cc1ccc(C)c(N/C=C/C(=O)c2ccccc2)c1` (library stock concentration (final ~1000-fold dilution): 10 mM), the “NF-kB SEAP reporter activity” value in the test with RAW-Dual [3] (agonist: LPS (TLR4) 0.1 ug/mL) worked out at 1.66; in the test on RAW-Dual [3] (setting [4]), 1.1; with RAW-Dual [3] (setting [5]) it was 1.03; in the test with RAW-Dual [3] (setting [6]), 1.1.

`CC(=O)N1CCCC1C(=O)NC(Cc1c[nH]cn1)C(=O)NC(CO)C(=O)NC(CS)C(=O)NC(CC(N)=O)C(N)=O` (stereo not given): the “NF-kB SEAP reporter activity” value is 0.979 in the test on RAW-Dual [2] (library stock concentration (final ~1000-fold dilution): 10 mM water, cytotoxicity flag (confluency mask): not cytotoxic, agonist: Imiquimod (TLR7) […]) and 1.06 in the test on RAW-Dual [2] (library stock concentration (final ~1000-fold dilution): 10 mM water, cytotoxicity flag (confluency mask): not cytotoxic, agonist: MPLA (TLR4) […]).

Regarding `CC(=O)N1CCCC1C(=O)NC(Cc1c[nH]cn1)C(=O)NC(CO)C(=O)NC(CS)C(=O)NC(CC(N)=O)C(N)=O` (stereo not given) (library stock concentration (final ~1000-fold dilution): 10 mM water), the “NF-kB SEAP reporter activity” value with RAW-Dual [3] (agonist: LPS (TLR4) 0.1 ug/mL) worked out at 1.15; in the test on RAW-Dual [3] (setting [4]) it was 1.22; with RAW-Dual [3] (setting [5]) it was 1.19; in the test with RAW-Dual [3] (setting [6]), 1.02.

Regarding `Cc1ccc(/C(=C\CN2CCCC2)c2ccccn2)cc1.Cl.O` (library stock concentration (final ~1000-fold dilution): 10 mM), the “NF-kB SEAP reporter activity” value in the test on RAW-Dual [3] (agonist: LPS (TLR4) 0.1 ug/mL) was determined as 1.18; with RAW-Dual [3] (setting [4]), 0.919; in the test with RAW-Dual [3] (setting [5]), 0.77; in the test with RAW-Dual [3] (setting [6]), 0.923.

Regarding `Cc1ccc(/C(=C\CN2CCCC2)c2ccccn2)cc1.Cl.O`, the “NF-kB SEAP reporter activity” value with RAW-Dual [2] (setting [8]) stood at 1.01.

`NS(=O)(=O)c1ccc(NC(=O)Nc2ccc(F)cc2)cc1`: the “NF-kB SEAP reporter activity” value with RAW-Dual [2] (setting [7]) was 0.976; in the test on RAW-Dual [2] (setting [8]), 1.01.

In the case of `NS(=O)(=O)c1ccc(NC(=O)Nc2ccc(F)cc2)cc1` (library stock concentration (final ~1000-fold dilution): 10 mM), the “NF-kB SEAP reporter activity” value in the test with RAW-Dual [3] (agonist: LPS (TLR4) 0.1 ug/mL) was determined as 0.964; in the test on RAW-Dual [3] (setting [4]), 0.955; with RAW-Dual [3] (setting [5]) it was 0.766; with RAW-Dual [3] (setting [6]), 0.963.

`CC(Cn1cnc2c(N)ncnc21)OCP(=O)(O)O` (stereo not given): the “NF-kB SEAP reporter activity” value in the test on RAW-Dual [2] (setting [7]) stood at 0.921; with RAW-Dual [2] (setting [8]), 0.961.

As to `CC(Cn1cnc2c(N)ncnc21)OCP(=O)(O)O` (stereo not given) (library stock concentration (final ~1000-fold dilution): 10 mM), the “NF-kB SEAP reporter activity” value in the test on RAW-Dual [3] (agonist: LPS (TLR4) 0.1 ug/mL) was found to be 0.98; with RAW-Dual [3] (setting [4]) it was 1.02; in the test on RAW-Dual [3] (setting [5]) it was 0.962; in the test with RAW-Dual [3] (setting [6]), 0.961.

Consider `FC(F)(F)Oc1ccc(-c2ccc3nnc(C(F)(F)F)n3c2)cc1` (library stock concentration (final ~1000-fold dilution): 10 mM), for which the “NF-kB SEAP reporter activity” value with RAW-Dual [3] (agonist: LPS (TLR4) 0.1 ug/mL) was found to be 1.08; in the test on RAW-Dual [3] (setting [4]), 0.832; in the test on RAW-Dual [3] (setting [5]), 0.744; in the test on RAW-Dual [3] (setting [6]), 0.732.

On to `FC(F)(F)Oc1ccc(-c2ccc3nnc(C(F)(F)F)n3c2)cc1`, for which the “NF-kB SEAP reporter activity” value with RAW-Dual [2] (setting [8]) was 0.877.

On to `CC1CCN(C(=O)CC#N)CC1N(C)c1ncnc2[nH]ccc12` (stereo not given), for which the “NF-kB SEAP reporter activity” value worked out at 1.31 in the test on RAW-Dual [2] (setting [7]) and 1.05 in the test on RAW-Dual [2] (setting [8]).

As to `CC1CCN(C(=O)CC#N)CC1N(C)c1ncnc2[nH]ccc12` (stereo not given) (library stock concentration (final ~1000-fold dilution): 10 mM), the “NF-kB SEAP reporter activity” value stood at 0.799 in the test with RAW-Dual [3] (agonist: LPS (TLR4) 0.1 ug/mL), 1.27 in the test on RAW-Dual [3] (setting [4]), 1.33 with RAW-Dual [3] (setting [5]) and 1.51 with RAW-Dual [3] (setting [6]).

On to `O=C(O)CCCC[C@@H]1CCSS1`, for which the figures for the “NF-kB SEAP reporter activity” value in the test with RAW-Dual [2] (setting [7]) and in the test on RAW-Dual [2] (setting [8]) were 0.941 and 1.03, respectively.

For `O=C(O)CCCC[C@@H]1CCSS1` (library stock concentration (final ~1000-fold dilution): 10 mM), the “NF-kB SEAP reporter activity” value in the test on RAW-Dual [3] (agonist: LPS (TLR4) 0.1 ug/mL) was 1.54; in the test on RAW-Dual [3] (setting [4]) it was 1.05; in the test on RAW-Dual [3] (setting [5]), 1.18; with RAW-Dual [3] (setting [6]), 1.09.

As for `COc1cc2ccc(=O)oc2cc1O` (library stock concentration (final ~1000-fold dilution): 10 mM), the “NF-kB SEAP reporter activity” value with RAW-Dual [3] (agonist: LPS (TLR4) 0.1 ug/mL) was 1.25; in the test with RAW-Dual [3] (setting [4]), 1.02; with RAW-Dual [3] (setting [5]), 1.23; in the test with RAW-Dual [3] (setting [6]) it was 1.13.

As to `COc1cc2ccc(=O)oc2cc1O`, the figures for the “NF-kB SEAP reporter activity” value with RAW-Dual [2] (setting [7]) and in the test with RAW-Dual [2] (setting [8]) were 1 and 1.09, respectively.

Consider `CCNc1nc(Nc2cc(F)c(C(=O)N3CCOCC3)cc2OC)ncc1C(F)(F)F`, for which the “NF-kB SEAP reporter activity” value in the test with RAW-Dual [2] (setting [7]) was 1.12; in the test with RAW-Dual [2] (setting [8]), 1.23.

Take `CCNc1nc(Nc2cc(F)c(C(=O)N3CCOCC3)cc2OC)ncc1C(F)(F)F` (library stock concentration (final ~1000-fold dilution): 10 mM): the “NF-kB SEAP reporter activity” value with RAW-Dual [3] (agonist: LPS (TLR4) 0.1 ug/mL) was determined as 0.855; in the test with RAW-Dual [3] (setting [4]), 0.831; in the test on RAW-Dual [3] (setting [5]), 0.871; in the test on RAW-Dual [3] (setting [6]), 0.8.

As to `Cc1ccc(-c2ccc(C)cn2)nc1` (library stock concentration (final ~1000-fold dilution): 10 mM), the “NF-kB SEAP reporter activity” value is 1.11 with RAW-Dual [3] (agonist: LPS (TLR4) 0.1 ug/mL), 0.777 in the test on RAW-Dual [3] (setting [4]), 0.881 with RAW-Dual [3] (setting [5]) and 0.793 in the test on RAW-Dual [3] (setting [6]).

For the compound `Cc1ccc(-c2ccc(C)cn2)nc1`, the “NF-kB SEAP reporter activity” value in the test on RAW-Dual [2] (setting [7]) stood at 0.9; with RAW-Dual [2] (setting [8]), 1.

For `CCCCCOc1ccc(-c2ccc(-c3ccc(C(=O)NC4CC(O)C(O)NC(=O)C5C(O)C(C)CN5C(=O)C(C(C)O)NC(=O)C(C(O)C(O)c5ccc(O)cc5)NC(=O)C5CC(O)CN5C(=O)C(C(C)O)NC4=O)cc3)cc2)cc1` (stereo not given) (library stock concentration (final ~1000-fold dilution): 10 mM), the “NF-kB SEAP reporter activity” value in the test with RAW-Dual [1] (agonist: LPS (TLR4) 0.1 ug/mL) was 3.72; in the test with RAW-Dual [1] (setting [4]) it was 0.545; with RAW-Dual [1] (setting [5]), 1.28; in the test on RAW-Dual [1] (setting [6]), 1.42.

With `CCCCCOc1ccc(-c2ccc(-c3ccc(C(=O)NC4CC(O)C(O)NC(=O)C5C(O)C(C)CN5C(=O)C(C(C)O)NC(=O)C(C(O)C(O)c5ccc(O)cc5)NC(=O)C5CC(O)CN5C(=O)C(C(C)O)NC4=O)cc3)cc2)cc1` (stereo not given), the “NF-kB SEAP reporter activity” value with RAW-Dual [2] (library stock concentration (final ~1000-fold dilution): 10 mM, cytotoxicity flag (confluency mask): cytotoxic (confluency <70% of control), agonist: Imiquimod (TLR7) […]) is 1.67; with RAW-Dual [2] (library stock concentration (final ~1000-fold dilution): 10 mM, cytotoxicity flag (confluency mask): cytotoxic (confluency <70% of control), agonist: MPLA (TLR4) […]), 2.43.

The values above are taken from the supplement of paper PMC10037445.
